± gives the standard error. Variants at the background level are over-represented here.
B1: glmS ribozyme (parent)
chain: AUAAAAGCGCCAGAACUACAGAAAUGUAGUUGACGAGGAGGAGGUUUAUCGAAUUUUCGGCGGAUGCCUCCAAA

Variants of: B1
Experiment: self-cleavage kobs at 2500 uM GlcN6P; higher = faster cleavage; RNA array
Conditions: with glucosamine-6-phosphate
Outline: (§1)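 On sequenced MiSeq chips, barcoded ribozyme variants were made in situ by E. coli RNA polymerase and followed at 37 °C through a hybridised Cy3 probe. Glucosamine-6-phosphate was flowed in at 40 μM to 10 mM in HEPES/KCl/Mg(OAc)2 buffer. Exponential fits to normalised per-tile medians gave kobs, and weighted Michaelis–Menten fits gave kcat and KM.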

| Variant | self-cleavage kobs at 2500 uM GlcN6P [s⁻¹] |
| --- | --- |
| C8U U30A A33C U55A | < 1e-05 |
| C8U U31A A42G G66C | < 1e-05 |
| G9A A14U A39G G62U | < 1e-05 |
| G9A A52U G62C | < 1e-05 |
| G9A G37C G38C | < 1e-05 |
| G9A G40U A48U | < 1e-05 |
| G9A G62U U69G | < 1e-05 |
| G9C A12U G37U G40C A64C C68A | < 1e-05 |
| G9C A14G G32C | < 1e-05 |
| G9C C10A G29C | < 1e-05 |
| G9C C16U G29C A48C U65A | < 1e-05 |
| G9C C16U G32A C67G C71U | < 1e-05 |
| G9C G29C A42U | < 1e-05 |
| G9C G41A A64G | < 1e-05 |
| G9C G44A C61A | < 1e-05 |
| G9C U46A G51C C70G | < 1e-05 |
| G9U A12G A36C A42U U46A | < 1e-05 |
| G9U A39U A48U C50A U57C G66A | < 1e-05 |
| G9U C10A G35A G59U G60A | < 1e-05 |
| G9U C10U C34U A53U G63U | < 1e-05 |
| G9U C11G G35C A42G | < 1e-05 |

| Variant | self-cleavage kobs at 2500 uM GlcN6P [s⁻¹] |
| --- | --- |
| G9U C16U G29U G59A | < 1e-05 |
| G9U G43C A53U C58G | < 1e-05 |
| G9U U30A G63U | < 1e-05 |
| G9U U30G A48G | < 1e-05 |
| C10A A12C G51U | < 1e-05 |
| C10A A48C | < 1e-05 |
| C10A C11A G51U A52U | < 1e-05 |
| C10A C11G A12U A52U | < 1e-05 |
| C10A C16U A36G A48C | < 1e-05 |
| C10A C34G U47C A48G U69G | < 1e-05 |
| C10A C34U G40U C71A | < 1e-05 |
| C10A G32U C58G | < 1e-05 |
| C10A G37C G40C G43U | < 1e-05 |
| C10A G38C C58G | < 1e-05 |
| C10A G38C G41U A52U | < 1e-05 |
| C10A G44A G59C C67G | < 1e-05 |
| C10A G60C G63C C67A C68G C70G C71U | 4.85e-05 ± 2.2e-05 |
| C10A U47A C70A | 0.000334 ± 0.00015 |
| C10G A12U G13C | < 1e-05 |
| C10G A14U A64C C71U | < 1e-05 |
| C10G A48U U49A A52U | < 1e-05 |

| Variant | self-cleavage kobs at 2500 uM GlcN6P [s⁻¹] |
| --- | --- |
| C10G C11A G35U U46G | < 1e-05 |
| C10G C11G A36C G38C A53C G60U | < 1e-05 |
| C10G C11G U31G | < 1e-05 |
| C10G G29C C70U | < 1e-05 |
| C10G G37A C67G C70U | < 1e-05 |
| C10G G43U U55G U57A | < 1e-05 |
| C10U A12C U30C U57A | < 1e-05 |
| C10U A12U G44U | < 1e-05 |
| C10U A14G A52U C67U | < 1e-05 |
| C10U A33G A39G G41C C67U | < 1e-05 |
| C10U A48C A52G | < 1e-05 |
| C10U C11U A15C C34A | < 1e-05 |
| C10U C70U | 1.83e-05 ± 8e-06 |
| C10U G13U A64C | < 1e-05 |
| C10U G29C G59U | < 1e-05 |
| C10U G29U G63U | < 1e-05 |
| C10U G32C U47C | < 1e-05 |
| C10U G35U A36U A42U U55C C68U | < 1e-05 |
| C10U G37C G44A C58U C61A G62A | < 1e-05 |
| C10U G44A A52U | < 1e-05 |
| C10U G51U G60U | < 1e-05 |

| Variant | self-cleavage kobs at 2500 uM GlcN6P [s⁻¹] |
| --- | --- |
| C11A A14C C70U | 7.46e-05 ± 2.7e-05 |
| C11A A48C U49G C58A | < 1e-05 |
| C11A A52G C70U | 8.24e-05 ± 3.2e-05 |
| C11A G29C G44C | < 1e-05 |
| C11A G40A G41A | < 1e-05 |
| C11A G60U C70U | < 1e-05 |
| C11A U30C C34U U46A | < 1e-05 |
| C11A U30G G44U U46C U47A A48C | < 1e-05 |
| C11G A12C A48C | < 1e-05 |
| C11G A14C G41C C50U | < 1e-05 |
| C11G A14G G63C | < 1e-05 |
| C11G A52U C68U | < 1e-05 |
| C11G G35A G66U | < 1e-05 |
| C11G G60C G63C | < 1e-05 |
| C11G U31A G32C A36U U57A | < 1e-05 |
| C11G U47A C50G C70G | 0.000352 ± 8.9e-05 |
| C11G U49G U55G | < 1e-05 |
| C11U A12C G32U | < 1e-05 |
| C11U A12U U46A U49A G51A G60C | < 1e-05 |

Variants of: B1
Experiment: self-cleavage kobs at 10000 uM GlcN6P; higher = faster cleavage; RNA array
Conditions: with glucosamine-6-phosphate
Outline: as §1

| Variant | self-cleavage kobs at 10000 uM GlcN6P [s⁻¹] |
| --- | --- |
| G9A A52U G62C | < 1e-05 |
| C10A A48C | < 1e-05 |
| C10A G37C G40C G43U | < 1e-05 |
| C10U A14G A52U C67U | < 1e-05 |
| C10U A33G A39G G41C C67U | < 1e-05 |
| C10U C70U | 2.38e-05 ± 7e-06 |
| C10U G37C G44A C58U C61A G62A | < 1e-05 |
| C10U G51U G60U | < 1e-05 |
| C11G G60C G63C | < 1e-05 |
| C11G U31A G32C A36U U57A | < 1e-05 |

— the supplement of paper PMC7125110
